Assay results taken from PubChem BioAssay (NCATS).
The other results are listed elsewhere or left out. Further columns of the screen follow, without active or inactive calls. Most of these compounds were active or inconclusive in the main read-out, so they are no random draw. The note in brackets gives the kind of curve behind each potency; many fits are weak.

Test: qHTS Assay for Lipid Storage Modulators (AID 1519)
Settings: Drosophila S3 cells, BODIPY lipid droplet/cell ratio, laser cytometry; measured here: cell count channel max response; cells loaded with oleic acid
Method in brief: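 Cells seeded at 5,000 per well were treated with compounds over a concentration series and loaded with oleic acid (400 uM, as added). Lipid droplet fluorescence (488 nm excitation, 500-530 nm channel) was read by laser-scanning cytometry and normalized to 20 uM Triacsin C.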
Tags describe the fitted curve by direction and shape.

Question: With `CC(C)c1cccc(O)c(=O)c1` as the compound, how does the max response read?
Answer: The max response was -25%.

Question: With `COCCn1c(=O)c(-c2ccc(F)cc2)nc2cnc(Oc3cccc(Cl)c3)nc21` as the compound, how does the max response read?
Answer: The max response was 18.9%.

Question: For `O=C1C=CC2=C3c4cc(O)c(O)cc4C[C@]3(O)COC2=C1`, which max response is on record?
Answer: The max response was -5.59%.

Question: Which max response does the source give for `CCCC[P+](CCCC)(CCCC)Cc1ccc(NC(=O)[C@@H](Cc2ccc3ccccc3c2)NC(=NC2CCCCC2)NC2CCCCC2)cc1` here?
Answer: Its max response is 52.9%.

Question: With `O=c1c(-c2ccc(F)cc2)nc2cnc(Oc3ccccc3)nc2n1C[C@H]1CCCO1` as the compound, how does the max response read?
Answer: The max response was -4.27%.

Question: With `COCCn1c(=O)c(-c2cccs2)nc2cnc(Oc3cccc(Cl)c3)nc21` as the compound, how does the max response read?
Answer: Its max response is 25.6%.

Question: For `COCC(=O)N1CCC2(CCCN(Cc3nccs3)C2)CC1`, which max response is on record?
Answer: The max response was 29.5%.

Question: For `O=C(c1cnccn1)N1CCC2(CC1)CN(Cc1ccccc1)C2`, which max response is on record?
Answer: The max response was 14.5%.

Question: With `[Li+]` as the compound, how does the max response read?
Answer: Its max response is 51.8%.

Question: Which max response does the source give for `C[C@]12CCC3c4ccc(O)cc4CCC3C1CCC2OC(=O)CCC1CCCC1` (some centres undefined) here?
Answer: Its max response is 1.5%.

Question: Which max response does the source give for `COc1ccc2[nH]cc(CCNc3ccnc(-c4ccccc4C)n3)c2c1` here?
Answer: Its max response is 13.5%.

Question: With `CN1CCN(c2ncc3nc(-c4cn(C)c5ccccc45)c(=O)n(CCc4ccccc4)c3n2)CC1` as the compound, how does the max response read?
Answer: The max response was 5.44%.

Question: Which max response does the source give for `COc1ccc(-c2nc3cnc(Oc4ccccc4)nc3n(C3CC3)c2=O)cc1` here?
Answer: The max response was 18%.

Question: With `O=c1c(-c2cccc(Cl)c2)nc2cncnc2n1C1CC1` as the compound, how does the max response read?
Answer: Its max response is 11.1%.

Question: For `CN(C)C(=O)c1ccc(-c2nc(Nc3ccc(F)cc3)c3ccccc3n2)cc1`, which max response is on record?
Answer: The max response was -9.41%.

Question: Which max response does the source give for `CCC1OC(=O)C(C)[C@@H](O[C@H]2C[C@@](C)(OC)C(O)C(C)O2)C(C)[C@@H](O[C@@H]2OC(C)CC(N(C)C)C2O)[C@@](C)(O)CC(C)C2NC(COCCOC)O[C@H](C2C)[C@@]1(C)O` (some centres undefined) here?
Answer: The max response was 29.7%.

Question: With `COCCn1c(=O)c(-c2ccccc2)nc2cnc(Oc3ccc(OC)cc3)nc21` as the compound, how does the max response read?
Answer: The max response was -5.68%.

Question: Which max response does the source give for `CCNc1ncc2nc(CCc3ccccc3)c(=O)n(CCC#N)c2n1` here?
Answer: The max response was 14.2%.

Question: For `NC(=O)c1cc[n+](CC2=C(C(=O)O)N3C(=O)C(NC(=O)C(c4ccccc4)S(=O)(=O)[O-])C3SC2)cc1` (centres undefined), which max response is on record?
Answer: Its max response is 20.5%.

Question: With `CCCc1ncc(C[n+]2ccccc2C)c(N)n1` as the compound, how does the max response read?
Answer: Its max response is 24%.

Question: With `CN1CCN(c2ncc3nc(-c4ccc(Cl)cc4)c(=O)n(C)c3n2)CC1` as the compound, how does the max response read?
Answer: Its max response is 7.92%.

Question: With `c1ccc(CNc2ccnc(-c3cccnc3)n2)cc1` as the compound, how does the max response read?
Answer: Its max response is 28.6%.

Same assay, conditions: Drosophila S3 cells, BODIPY lipid droplet/cell ratio, laser cytometry; measured here: cell number channel AC50; cells loaded with oleic acid

Question: Which AC50 does the source give for `COCCn1c(=O)c(-c2cccc(C#N)c2)nc2cnc(Nc3ccccc3)nc21` here?
Answer: Its AC50 is 3160 nM [rising, partial curve, poor fit].

Question: Which AC50 does the source give for `COc1ccc(-c2nc3cnc(Nc4ccccc4)nc3n(CCC#N)c2=O)cc1` here?
Answer: Its AC50 is 20000 nM [rising, partial curve, poor fit].

Question: Which AC50 does the source give for `FC(F)(F)c1ccccc1-c1nc(-n2ccnc2)c2ccccc2n1` here?
Answer: Its AC50 is 3980 nM [rising, partial curve].

Question: With `COCCn1c(=O)c(-c2cccs2)nc2cnc(Oc3cccc(Cl)c3)nc21` as the compound, how does the AC50 read?
Answer: Its AC50 is 891 nM [rising, full curve].

Question: For `O=C(c1cnccn1)N1CCC2(CC1)CN(Cc1ccccc1)C2`, which AC50 is on record?
Answer: The AC50 was 891 nM [rising, single point].

Same assay, conditions: Drosophila S3 cells, BODIPY lipid droplet/cell ratio, laser cytometry; measured here: lipid (BODIPY) channel AC50; cells loaded with oleic acid

Question: Which AC50 does the source give for `O=C(Nc1ccccc1)N1CCCC2(CCN(C(=O)c3cnccn3)CC2)C1` here?
Answer: Its AC50 is 17800 nM [rising, partial curve, poor fit].

Question: Which AC50 does the source give for `O=C(c1ccco1)N1CCC2(CC1)CN(c1cccc(-c3ccccc3)c1)C2` here?
Answer: Its AC50 is 7080 nM [rising, single point].

Question: With `COc1cc2c(cc1OC)C(=O)OC2` as the compound, how does the AC50 read?
Answer: The AC50 was 15800 nM [rising, partial curve].

Question: For `COCCn1c(=O)c(-c2ccc(Cl)cc2)nc2cnc(Oc3ccccc3)nc21`, which AC50 is on record?
Answer: Its AC50 is 17.8 nM [rising, full curve, poor fit].

Question: Which AC50 does the source give for `C[N+]1(C)C2CCC1CC(OC(=O)C(O)c1ccccc1)C2` (centres undefined) here?
Answer: Its AC50 is 39800 nM [rising, single point].

Question: With `O=S(=O)(c1ccccc1)N1CCC2(CCCN(c3ccccc3)C2)CC1` as the compound, how does the AC50 read?
Answer: The AC50 was 14.1 nM [rising, full curve, poor fit].

Question: For `Cc1nc2cnc(N(C)C)nc2n(C)c1=O`, which AC50 is on record?
Answer: The AC50 was 7080 nM [rising, partial curve, poor fit].

Question: Which AC50 does the source give for `CC(=O)N1CCC2(CC1)CCN(c1cccc(-c3ccccc3)c1)CC2` here?
Answer: Its AC50 is 3550 nM [rising, partial curve].

Question: Which AC50 does the source give for `N#Cc1ccccc1-c1ccc2ncnc(NCc3cccnc3)c2c1` here?
Answer: The AC50 was 1410 nM [rising, full curve, poor fit].

Question: For `CCCN(CCC)CCc1cccc2c1CC(=O)N2`, which AC50 is on record?
Answer: Its AC50 is 39800 nM [rising, single point].

Question: With `CCNc1ncc2nc(-c3cc(F)cc(F)c3)c(=O)n(-c3ccccc3)c2n1` as the compound, how does the AC50 read?
Answer: The AC50 was 1000 nM [rising, full curve].

Question: With `CN1CCN(c2ncc3ncc(=O)n(CCc4ccccc4)c3n2)CC1` as the compound, how does the AC50 read?
Answer: Its AC50 is 158 nM [rising, full curve].

Question: Which AC50 does the source give for `CN(C)c1ncc2nc(-c3ccccc3)c(=O)n(CCC#N)c2n1` here?
Answer: The AC50 was 631 nM [rising, full curve].

Question: With `CN(C)CCOC(c1ccccc1)c1ccccc1` (tested in a mixture with another compound) as the compound, how does the AC50 read?
Answer: Its AC50 is 6310 nM [rising, partial curve].

Question: With `CC(C)c1cccc(O)c(=O)c1` as the compound, how does the AC50 read?
Answer: The AC50 was 8.91 nM [falling, full curve, poor fit].

Question: Which AC50 does the source give for `COCCn1c(=O)c(-c2ccc(F)cc2)nc2cnc(Oc3cccc(Cl)c3)nc21` here?
Answer: The AC50 was 31.6 nM [rising, full curve, poor fit].

Question: Which AC50 does the source give for `O=C1C=CC2=C3c4cc(O)c(O)cc4C[C@]3(O)COC2=C1` here?
Answer: Its AC50 is 20000 nM [falling, single point].

Question: Which AC50 does the source give for `O=c1c(-c2ccc(F)cc2)nc2cnc(Oc3ccccc3)nc2n1C[C@H]1CCCO1` here?
Answer: The AC50 was 17800 nM [falling, single point].

Question: Which AC50 does the source give for `COCC(=O)N1CCC2(CCCN(Cc3nccs3)C2)CC1` here?
Answer: Its AC50 is 6.31 nM [rising, full curve, poor fit].

Question: With `C[C@]12CCC3c4ccc(O)cc4CCC3C1CCC2OC(=O)CCC1CCCC1` (some centres undefined) as the compound, how does the AC50 read?
Answer: Its AC50 is 39800 nM [falling, single point].

Question: For `COc1ccc2[nH]cc(CCNc3ccnc(-c4ccccc4C)n3)c2c1`, which AC50 is on record?
Answer: The AC50 was 562 nM [rising, full curve].

Question: Which AC50 does the source give for `CN1CCN(c2ncc3nc(-c4cn(C)c5ccccc45)c(=O)n(CCc4ccccc4)c3n2)CC1` here?
Answer: Its AC50 is 562 nM [rising, full curve].

Question: For `COc1ccc(-c2nc3cnc(Oc4ccccc4)nc3n(C3CC3)c2=O)cc1`, which AC50 is on record?
Answer: The AC50 was 31.6 nM [rising, full curve, poor fit].

Question: Which AC50 does the source give for `O=c1c(-c2cccc(Cl)c2)nc2cncnc2n1C1CC1` here?
Answer: Its AC50 is 1260 nM [rising, full curve, poor fit].

Question: With `CN(C)C(=O)c1ccc(-c2nc(Nc3ccc(F)cc3)c3ccccc3n2)cc1` as the compound, how does the AC50 read?
Answer: The AC50 was 3550 nM [rising, partial curve, poor fit].

Question: With `CCC1OC(=O)C(C)[C@@H](O[C@H]2C[C@@](C)(OC)C(O)C(C)O2)C(C)[C@@H](O[C@@H]2OC(C)CC(N(C)C)C2O)[C@@](C)(O)CC(C)C2NC(COCCOC)O[C@H](C2C)[C@@]1(C)O` (some centres undefined) as the compound, how does the AC50 read?
Answer: The AC50 was 39800 nM [rising, single point].

Question: With `COCCn1c(=O)c(-c2ccccc2)nc2cnc(Oc3ccc(OC)cc3)nc21` as the compound, how does the AC50 read?
Answer: The AC50 was 1260 nM [rising, full curve, poor fit].

Question: For `CCNc1ncc2nc(CCc3ccccc3)c(=O)n(CCC#N)c2n1`, which AC50 is on record?
Answer: The AC50 was 2240 nM [rising, partial curve].

Question: With `NC(=O)c1cc[n+](CC2=C(C(=O)O)N3C(=O)C(NC(=O)C(c4ccccc4)S(=O)(=O)[O-])C3SC2)cc1` (centres undefined) as the compound, how does the AC50 read?
Answer: The AC50 was 39800 nM [rising, single point].

Question: For `CCCc1ncc(C[n+]2ccccc2C)c(N)n1`, which AC50 is on record?
Answer: The AC50 was 39800 nM [rising, single point].

Question: For `CN1CCN(c2ncc3nc(-c4ccc(Cl)cc4)c(=O)n(C)c3n2)CC1`, which AC50 is on record?
Answer: The AC50 was 1260 nM [rising, partial curve, poor fit].

Question: Which AC50 does the source give for `c1ccc(CNc2ccnc(-c3cccnc3)n2)cc1` here?
Answer: Its AC50 is 1580 nM [rising, full curve].
